# Data: PubChem BioAssay (Tox21)
# “And” between values parts separate entries of the source, which are not always exact repeats. Equal values may be shown once. The shares of active, inactive and inconclusive entries below differ from those in the screen. Potencies of inconclusive entries are doubtful fits and often do not repeat. A structure can be active in one record and inactive in another. The source made the active and inactive calls. The call rests on the fitted dose curve; in most records, active means well fitted curve in the direction sought with a large enough effect in the repeat runs; inconclusive means weak or mixed curves; inactive means no such curve, though single readings can be large; an effect the other way counts as inactive or inconclusive.
# How the values were obtained:
# [1] = qHTS RealTime-Glo MT Cell Viability Assay in HepG2 cells - 40 hour (AID 1224870); further: nearly all actives have a fitted effect of over 50% in size
# Outline: (§1)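 Real-time viability: cells seeded at 600 per well together with NanoLuc and cell-permeant prosubstrate, compounds added after 5 h incubation. Luminescence tracked at 0, 8, 16, 24, 32 and 40 h of exposure.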
# [2] = qHTS RealTime-Glo MT Cell Viability Assay in HepG2 cells - 8 hour (AID 1224873); further: nearly all actives have a fitted effect of over 55% in size; on viability change, negative = cytotoxic: on the % scale 0 is the no-effect control and ±100 the full control effect
# Outline: as §1
# [3] = qHTS RealTime-Glo MT Cell Viability Assay in HepG2 cells - 32 hour (AID 1224877); further: nearly all actives have a fitted effect of over 55% in size
# Outline: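 Tox21 10K library screened in qHTS format on HepG2 cells carrying RealTime-Glo reagents. Compounds were added after a 5 h preincubation, and the luminescent signal from continuous culture was measured repeatedly during 40 h treatment.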
# [4] = qHTS RealTime-Glo MT Cell Viability Assay in HEK293 cells - 16 hour (AID 1224872); further: nearly all actives have a fitted effect of over 50% in size
# Outline: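 Luminescence generated by NanoLuc from substrate produced by living HEK293 cells served as the viability signal. Each value reflects the reading at its stated time point during continuous 40 h compound exposure at 37 C.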
# [5] = qHTS RealTime-Glo MT Cell Viability Assay in HEK293 cells - 40 hour (AID 1224874); settings: RealTime-Glo luminescence; max response: stronger effect = lower value; further: nearly all actives have a fitted effect of over 50% in size
# Outline: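 HEK293 cells mixed with RealTime-Glo reagents (NanoLuc plus cell-permeant prosubstrate) at 600 cells/well, preincubated 5 h at 37 C/5% CO2, then given 23 nL compound in DMSO. Nonlytic luminescence from viable cells was read at 0, 8, 16, 24, 32 and 40 h.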
# [6] = A CellTox Green Cytotoxicity Assay to monitor cytotoxicity in HEK293 cells - 40 hour (AID 1224871); further: nearly all actives have a fitted effect of over 45% in size; on cytotoxicity increase: on the % scale 0 is the no-effect control and ±100 the full control effect
# Outline: (§2)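 HEK293 cells premixed with CellTox Green dye were seeded at 600 cells/well and left 5 h at 37 C/5% CO2 before pin transfer of 23 nL compound in DMSO. Fluorescence from dye bound to dead-cell DNA was read during 40 h treatment.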
# [7] = A CellTox Green Cytotoxicity Assay to monitor cytotoxicity in HepG2 cells - 40 hour (AID 1224879); further: nearly all actives have a fitted effect of over 40% in size; on cytotoxicity increase: on the % scale 0 is the no-effect control and ±100 the full control effect
# Outline: (§3)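 HepG2 cells were seeded together with the CellTox Green dye at 600 cells/well, left 5 h at 37 C/5% CO2, then given compounds in DMSO. Fluorescence from dye bound to dead-cell DNA was read repeatedly over 40 h of treatment at 37 C.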
# [8] = A CellTox Green Cytotoxicity Assay to monitor cytotoxicity in HepG2 cells - 16 hour (AID 1224876); further: nearly all actives have a fitted effect of over 45% in size
# Outline: as §3
# [9] = A CellTox Green Cytotoxicity Assay to monitor cytotoxicity in HepG2 cells - 24 hour (AID 1224878); further: nearly all actives have a fitted effect of over 45% in size
# Outline: as §3
# [10] = A CellTox Green Cytotoxicity Assay to monitor cytotoxicity in HEK293 cells - 24 hour (AID 1224875); further: nearly all actives have a fitted effect of over 45% in size
# Outline: as §2
# Potency means the concentration at half of the fitted maximal effect; tags describe the fitted curve by direction and shape.
smiles,measurement,setting,value
CCN(Cc1cccnc1)C(=O)c1cccc(Cl)c1[C@]1(C)C(=O)N(Cc2ccc(OC)cc2OC)c2ccc(Cl)cc21,Potency,[1],"inconclusive: 22.9 µM [falling, partial curve]"
same,Potency,[2],active: 20.4 µM
same,Potency,[3],"inconclusive: 20.4 µM [cytotoxic, partial curve]"
COCCOC(=O)C1=C(C)NC(C)=C(C(=O)OC(C)C)C1c1cccc([N+](=O)[O-])c1 (centres undefined),Potency,[1],"inconclusive: 4.77 µM [falling, partial curve]"
same,Potency,[4],"inconclusive: 16.9 µM [cytotoxic, partial curve]"
same,Potency,[2],"inconclusive: 10.7 µM [falling, partial curve]"
same,Potency,[5],"inconclusive: 10.7 µM [cytotoxic, partial curve]"
same,Potency,[3],"inconclusive: 6.74 µM [cytotoxic, partial curve]"
N=C1C=CC(=C(c2ccc(N)cc2)c2ccc(N)cc2)C=C1,Potency,[1],active: 38.9 µM
same,Potency,[4],active: 3.09 µM
same,Potency,[2],"inconclusive: 24.5 µM [falling, partial curve]"
same,Potency,[5],active: 1.95 µM
C[C@H](CCC(=O)O)[C@H]1CC[C@H]2[C@@H]3CC[C@@H]4C[C@H](O)CC[C@]4(C)[C@H]3CC[C@]12C,Potency,[1],inactive
same,Potency,[6],"inconclusive: 43.5 µM [activator, partial curve, poor fit]"
same,Potency,[7],"inconclusive: 54.7 µM [activator, single point] and inconclusive: 21.9 µM [activator, single point]"
Cc1cc(O)c2c(c1)C(=O)c1cc(O)cc(O)c1C2=O,Potency,[1],"inconclusive: 49 µM [falling, partial curve, poor fit]"
same,Potency,[5],"inconclusive: 21.4 µM [cytotoxic, partial curve] and inconclusive: 43.6 µM [cytotoxic, partial curve]"
same,Potency,[3],"inactive and inconclusive: 49 µM [cytotoxic, partial curve, poor fit]"
Cc1ccc(NC(=O)c2ccc(CN3CCN(C)CC3)cc2)cc1Nc1nccc(-c2cccnc2)n1,Potency,[1],inactive
same,Potency,[4],"inconclusive: 21.3 µM [cytotoxic, partial curve]"
same,Potency,[7],"inconclusive: 26.8 µM [activator, partial curve, poor fit]"
COc1cccc2c1C(=O)c1c(O)c3c(c(O)c1C2=O)C[C@@](O)(C(C)=O)C[C@@H]3O[C@H]1C[C@H](N)[C@H](O)[C@H](C)O1,Potency,[1],"inconclusive: 0.0601 µM [falling, full curve, poor fit]"
same,Potency,[4],active: 6.2 µM and active: 151 nM
same,Potency,[8],"inconclusive: 26.8 µM [activator, single point]"
same,Potency,[3],"inconclusive: 0.0601 µM [cytotoxic, partial curve, poor fit]"
same,Potency,[9],"inconclusive: 26.8 µM [activator, single point]"
same,Potency,[7],"inconclusive: 0.0239 µM [activator, full curve, poor fit]"
C=C(C)C(=O)OCC(O)COc1ccc(C(C)(C)c2ccc(OCC(O)COC(=O)C(=C)C)cc2)cc1 (centres undefined),Potency,[1],"inconclusive: 24.5 µM [falling, full curve]"
same,Potency,[6],"inconclusive: 54.9 µM [activator, single point]"
same,Potency,[3],active: 21.9 µM
[Cl][Au]([Cl])[Cl],Potency,[1],active: 8.71 µM
same,Potency,[2],active: 49 µM
CCCCC(CC)COP(=O)(O)OCC(CC)CCCC (centres undefined),Potency,[6],"inconclusive: 49.1 µM [activator, single point]"
same,Potency,[4],"inconclusive: 54.9 µM [cytotoxic, single point]"
same,Potency,[2],"inconclusive: 54.9 µM [falling, partial curve, poor fit]"
same,Potency,[5],"inconclusive: 49.1 µM [cytotoxic, single point] and inconclusive: 49 µM [cytotoxic, partial curve]"
same,Potency,[10],"inconclusive: 49.1 µM [activator, single point] and active: 43.6 µM"
same,Potency,[8],"inconclusive: 49.1 µM [activator, single point]"
same,Potency,[9],active: 49.1 µM
same,Potency,[7],"inconclusive: 49.1 µM [activator, single point]"
c1ccc(CSCc2ccccc2)cc1,Potency,[6],inactive
CC(S)C(C)S (centres undefined),Potency,[6],inactive
OC[C@]1(O)OC[C@@H](O)[C@H](O)[C@@H]1O,Potency,[6],inactive
C=C[C@@]1(C)CC(=O)[C@]2(O)[C@@]3(C)[C@@H](O)CCC(C)(C)[C@@H]3[C@H](O)[C@H](OC(C)=O)[C@@]2(C)O1,Potency,[6],"inconclusive: 49 µM [activator, single point] and inactive"
same,Potency,[4],"inconclusive: 38.9 µM [cytotoxic, partial curve]"
same,Potency,[5],"inconclusive: 54.9 µM [cytotoxic, single point]"
C[C@H](CCC(=O)O)[C@H]1CC[C@H]2[C@@H]3[C@H](O)C[C@@H]4C[C@H](O)CC[C@]4(C)[C@H]3CC[C@]12C,Potency,[6],"inconclusive: 4.38 µM [activator, partial curve, poor fit]"
same,Potency,[4],"inconclusive: 49.1 µM [cytotoxic, single point]"
same,Potency,[5],"inconclusive: 49.1 µM [cytotoxic, partial curve]"
CC(C)CCOCc1ccccc1,Potency,[6],inactive
CC1(C)CCC[C@]2(C)[C@H]3CC(=O)O[C@]3(C)CC[C@@H]12,Potency,[6],active: 49 µM
O=CC=C(c1ccccc1)c1ccccc1,Potency,[6],"inconclusive: 55.4 µM [activator, single point]"
same,Potency,[4],"inconclusive: 17.5 µM [cytotoxic, full curve]"
same,Potency,[5],active: 17.5 µM
same,Potency,[10],"inconclusive: 49.4 µM [activator, single point]"
Cn1c(=O)c2[nH]c(Br)nc2n(C)c1=O,Potency,[6],inactive
CCCCOC(=O)/C=C\C(=O)OCCCC,Potency,[6],"inconclusive: 63.8 µM [activator, single point]"
O=[N+]([O-])c1cccc(I)c1,Potency,[6],"inconclusive: 48.7 µM [activator, partial curve, poor fit]"
CN(C)c1ccc(C(c2ccccc2)c2ccc(N(C)C)cc2)cc1,Potency,[6],"inconclusive: 0.219 µM [activator, single point]"
same,Potency,[4],"inconclusive: 19.5 µM [cytotoxic, partial curve]"
same,Potency,[2],"inconclusive: 34.7 µM [falling, partial curve, poor fit]"
same,Potency,[5],"inconclusive: 21.9 µM [cytotoxic, partial curve]"
same,Potency,[10],"inconclusive: 0.195 µM [activator, single point]"
OCCN(CCO)c1nc(N2CCCCC2)c2nc(N(CCO)CCO)nc(N3CCCCC3)c2n1,Potency,[6],active: 19 µM
same,Potency,[4],"inconclusive: 23.9 µM [cytotoxic, partial curve]"
Cc1ccc(C)c(O)c1C,Potency,[6],inactive
CCC(=O)Nc1ccc(O)cc1,Potency,[6],inactive
same,Potency,[4],inactive
ONc1ccccc1,Potency,[6],"inconclusive: 68.5 µM [activator, single point]"
Cc1cccc2c1cc1ccc3cccc4ccc2c1c34,Potency,[6],"inconclusive: 63.1 µM [activator, single point]"
same,Potency,[4],"inconclusive: 56.2 µM [rising, partial curve]"
same,Potency,[5],"inconclusive: 63.1 µM [rising, single point]"
same,Potency,[10],"inconclusive: 56.2 µM [activator, single point]"
CCCCOc1ccc(C(=O)CCN2CCCCC2)cc1,Potency,[6],active: 19 µM
same,Potency,[4],"inconclusive: 26.8 µM [cytotoxic, single point]"
same,Potency,[2],"inconclusive: 21.3 µM [falling, partial curve]"
same,Potency,[3],active: 10.7 µM
same,Potency,[7],active: 19 µM
COc1ccc2cc3[n+](cc2c1OC)CCc1cc2c(cc1-3)OCO2,Potency,[6],active: 22 µM and active: 19 µM
same,Potency,[4],"active: 4.4 µM and inconclusive: 10.7 µM [cytotoxic, full curve]"
same,Potency,[2],"inconclusive: 39.2 µM [falling, partial curve, poor fit]"
same,Potency,[5],active: 4.4 µM and active: 9.52 µM
CCCCCCCCCCCO,Potency,[6],"inconclusive: 25.1 µM [activator, full curve, poor fit]"
CCC1OCC(COc2ccc(Oc3ccccc3)cc2)O1 (centres undefined),Potency,[6],inactive
same,Potency,[4],"inconclusive: 49 µM [cytotoxic, partial curve]"
same,Potency,[5],"inconclusive: 24.5 µM [cytotoxic, partial curve]"
Cc1cc(C)c(N=Nc2c(O)c(S(=O)(=O)O)cc3cc(S(=O)(=O)O)ccc23)cc1C,cytotoxicity increase,[6],inactive: 18.5% [at 6.97 µM]
same,Potency,[4],"inconclusive: 2.73 µM [rising, single point]"
same,"viability change, negative = cytotoxic",[2],inactive: 5.41% [at 6.97 µM]
same,Potency,[5],"inconclusive: 2.73 µM [rising, single point]"
Cc1[nH]cnc1-c1ccc(Cl)cc1,Potency,[6],inactive
ClC(Cl)(Cl)c1ccc(C(Cl)(Cl)Cl)cc1,Potency,[6],"inconclusive: 24.3 µM [activator, full curve, poor fit]"
C[Si](Cl)(c1ccccc1)c1ccccc1,Potency,[6],"inconclusive: 53.6 µM [activator, single point]"
same,Potency,[4],"inconclusive: 53.6 µM [cytotoxic, single point]"
same,Potency,[5],"inconclusive: 53.6 µM [cytotoxic, single point]"
C=C1C(=C/C=C2\CCC[C@]3(C)[C@@H]([C@H](C)/C=C/[C@@H](O)C4CC4)CC[C@@H]23)C[C@@H](O)C[C@@H]1O,Potency,[6],"inconclusive: 16.9 µM [activator, partial curve]"
Cc1ccc(NC=O)c(C)c1,Potency,[1],inactive
same,Potency,[7],inactive
OCc1c[nH]c2ccccc12,Potency,[6],"inconclusive: 54.9 µM [activator, single point]"
same,Potency,[4],"inconclusive: 15.5 µM [rising, full curve]"
same,Potency,[2],"inconclusive: 43.6 µM [phenotype inactive, partial curve, poor fit]"
same,Potency,[5],"inconclusive: 2.75 µM [rising, full curve, poor fit]"
same,Potency,[10],"inconclusive: 54.9 µM [activator, single point]"
same,Potency,[7],"inconclusive: 54.9 µM [activator, partial curve, poor fit]"
